The record followed here is PubChem BioAssay AID360 (National Center for Advancing Translational Sciences (NCATS), 2006).

The whole screen tested about 48,000 compounds, of which about 550 (1.1%) were called active. Inconclusive results (about 4%) are left out. Cut-off read from the data, not from the text of the source: active = potency below about 15 µM; inconclusive = mostly about 16 µM to 33 µM; inactive = weaker than that. The list shows a part of the results. A value given as a limit tells only on which side of the number the result lay.
Potency is the fitted concentration of half-maximal effect.

The target in this experiment is Lysosomal acid glucosylceramidase (Homo sapiens) (UniProt P04062). Kind of experiment: Glucocerebrosidase.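 Note: the screen sought inhibitors.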 The conditions noted are these: purified enzyme, resorufin glucoside fluorescence (screen aimed at inhibitors), 20 min. A digest of the protocol: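 Normal human glucocerebrosidase (0.2 nM final) was assayed with resorufin β-D-glucopyranoside (30 uM final) in 50mM citric acid/KH2PO4, 10mM sodium taurocholate, 0.01% tween-20, pH 5.9. Compounds were titrated; fluorescence (Ex 548, Em 600) read after 20 min at RT.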
Sequence of UniProt P04062 (P04062 whole entry, looked up): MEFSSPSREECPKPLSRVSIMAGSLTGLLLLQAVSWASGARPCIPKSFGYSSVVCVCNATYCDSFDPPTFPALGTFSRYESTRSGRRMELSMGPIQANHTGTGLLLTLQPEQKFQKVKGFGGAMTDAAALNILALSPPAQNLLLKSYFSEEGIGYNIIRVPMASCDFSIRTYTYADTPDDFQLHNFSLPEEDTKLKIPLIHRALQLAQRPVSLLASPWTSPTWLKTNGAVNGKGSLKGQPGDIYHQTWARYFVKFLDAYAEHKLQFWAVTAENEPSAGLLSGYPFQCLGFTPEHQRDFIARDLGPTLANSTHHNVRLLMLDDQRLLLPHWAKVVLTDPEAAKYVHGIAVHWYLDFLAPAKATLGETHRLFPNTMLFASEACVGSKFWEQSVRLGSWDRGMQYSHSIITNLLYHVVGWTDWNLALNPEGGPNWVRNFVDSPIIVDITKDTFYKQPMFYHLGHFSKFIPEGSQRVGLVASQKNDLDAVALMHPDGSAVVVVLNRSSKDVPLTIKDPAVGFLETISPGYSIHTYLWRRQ
For `COc1ccc(NC(=O)C2CCCN(S(=O)(=O)c3c(C)n[nH]c3C)C2)cc1` (stereo unspecified), the Potency was inactive: > 76.9 µM.

For `Cc1nnc(SCC(=O)N(C)Cc2ccccc2)[nH]c1=O`, the Potency was inactive: > 76.9 µM.

On to `CCCNS(=O)(=O)c1ccc(CCC(=O)N2CCCCC2)cc1`, for which the Potency was inactive: > 76.9 µM.

With `Cc1ccc(CNC(=O)C2c3ccccc3C(=O)N(C)C2c2c[nH]c3ccccc23)o1` (stereo unspecified), the Potency was inactive: > 76.9 µM.

As for `Cc1ccc(-c2[nH]nc3c2C(c2ccc(OC(=O)N4CCOCC4)cc2)C(C#N)=C(N)O3)cc1` (stereo unspecified), the Potency is inactive: > 76.9 µM.

With `O=c1c2cn[nH]c2nc(SCc2ccc3c(c2)OCCO3)n1-c1ccccc1`, the Potency was inactive: > 76.9 µM.

As for `COc1ccc(C(=O)Nc2ccccc2C(=O)NC(C(=O)NCc2ccco2)C(C)C)cc1` (stereo unspecified), the Potency is inactive: > 76.9 µM.

As to `O=c1c2ccccc2nc(-c2ccccc2)n1CCN1CCOCC1`, the Potency was inactive: > 76.9 µM.

With `Cc1ccc(-c2cc(C(F)F)nc(N3CCC(C)CC3)n2)cc1`, the Potency was inactive: > 76.9 µM.

Consider `O=C(NC1CC2CCCC(C1)N2C(=O)NC1CCCCC1)c1ccccc1` (stereo unspecified), for which the Potency was inactive: > 76.9 µM.

Consider `COc1ccc(Br)cc1S(=O)(=O)N1CCOCC1`, for which the Potency is inactive: > 76.9 µM.

For the compound `Cc1cc(Cl)ccc1OCC(=O)N1C(C)CCCC1C` (stereo unspecified), the Potency was inactive: > 76.9 µM.

Consider `Cn1nnnc1P(=O)(c1ccccc1)c1ccccc1`, for which the Potency was inactive: > 76.9 µM.

As to `CCOC(=O)c1c(N)nn(C(=O)C(C)C)c1-c1ccccc1`, the Potency is inactive: > 76.9 µM.

Take `CC(=O)CC1(C)OC(N)=C(C#N)C1(C#N)C#N` (stereo unspecified): the Potency is inactive: > 76.9 µM.

Take `Cc1cc(C)cc(N(CC(=O)NCC2CCCO2)C(=O)CCC(=O)Nc2cc(C)on2)c1` (stereo unspecified): the Potency is inactive: > 76.9 µM.

For the compound `COc1ccccc1N1CCN(C(=O)C2CCN(S(=O)(=O)N3CCOCC3)CC2)CC1`, the Potency is inactive: > 76.9 µM.

`CCC(CC)C(=O)Nc1nnc(SCC(=O)N2CCN(c3ccccc3OC)CC2)s1`: the Potency is inactive: > 76.9 µM.

`COc1ccc(-n2nnnc2SCC(=O)NCc2ccco2)cc1OC`: the Potency is inactive: > 76.9 µM.

On to `COCCn1c(=N)c(C(=O)NCc2ccco2)cc2c(=O)n3ccccc3nc21`, for which the Potency was inactive: > 76.9 µM.

As for `Cc1ccc(Nc2nnc(SCC(=O)NCc3ccco3)s2)cc1`, the Potency was inactive: > 76.9 µM.

Take `CCOCCCNC(=O)C1CCN(S(=O)(=O)N2CC(C)CC(C)C2)CC1` (stereo unspecified): the Potency was inactive: > 76.9 µM.

Take `Cc1nn(C)c(C)c1CNC(=O)c1cc2n(n1)C(C(F)(F)F)CC(c1cccs1)N2` (stereo unspecified): the Potency is inactive: > 76.9 µM.

Regarding `CCOC(=O)C(NC(=O)C1CCCN1C(=O)OCc1ccccc1)C(=O)OCC` (stereo unspecified), the Potency is inactive: > 76.9 µM.

Take `COc1ccc(C(CNC(=O)CN2C(=O)NC3(CC(C)CC(C)(C)C3)C2=O)N2CCOCC2)cc1` (stereo unspecified): the Potency is inactive: > 76.9 µM.

In the case of `C=CCN(C(=O)CNC(=O)c1ccco1)C(C(=O)NC1CCCCC1)c1ccccc1F` (stereo unspecified), the Potency is inactive: > 76.9 µM.

As to `CCOC(=O)c1ccc(N2C(=O)CC(N3CCC(O)(c4ccc(Cl)cc4)CC3)C2=O)cc1` (stereo unspecified), the Potency was inactive: > 76.9 µM.

As to `COc1ccc(C2CC(=O)c3cnc(NC(=O)c4cc(OC)cc(OC)c4)nc3C2)cc1` (stereo unspecified), the Potency is inactive: > 76.9 µM.

For `Cc1cc(C)c2c(=O)[nH]n(C3CC(C)N(C)CC3C)c2n1` (stereo unspecified), the Potency is inactive: > 76.9 µM.

As to `CCOC(=O)N1CCN(C(=O)CCCn2c(=O)[nH]c3ccccc3c2=O)CC1`, the Potency was inactive: > 76.9 µM.

`O=C(O)C1CCN(Cc2cnn(-c3ccccc3)c2-n2cccc2)CC1`: the Potency is inactive: > 76.9 µM.

In the case of `Cc1cccc(-n2nnnc2SCn2nnc3ccccc3c2=O)c1`, the Potency was inactive: > 76.9 µM.

In the case of `N#Cc1c(/N=C/c2ccco2)oc(-c2ccccc2)c1-c1ccccc1`, the Potency was inactive: > 76.9 µM.

For `CCOc1ccc(OCC(=O)N2CCOCC2)cc1`, the Potency was inactive: > 76.9 µM.

For `COc1cc(OC)nc(NC2OC(=O)c3ccccc32)n1` (stereo unspecified), the Potency is inactive: > 76.9 µM.

`CC(O)c1ccc2c(c1)OCCOCCN(C)CCOCCO2` (stereo unspecified): the Potency was inactive: > 76.9 µM.

On to `CC1CN(C(=O)CSc2nnc(-c3ccc(Cl)cc3)n2C)CC(C)O1` (stereo unspecified), for which the Potency was inactive: > 76.9 µM.

Turning to `COCCNC(=O)C(c1ccc(C)o1)N(Cc1cccs1)C(=O)c1snc(C(N)=O)c1N` (stereo unspecified), the Potency was inactive: > 76.9 µM.

As to `O=C(c1cccnc1)N1C2C=CC(C2)C1(C(F)(F)F)C(F)(F)F` (stereo unspecified), the Potency was inactive: > 76.9 µM.

Regarding `COc1ccc(N2CCN(C(=O)COc3ccc4ccccc4c3)CC2)cc1`, the Potency is inactive: > 76.9 µM.

Regarding `N#CC(C(=O)NC1CC1)c1nc2ccccc2nc1N1CCCC1` (stereo unspecified), the Potency is inactive: > 76.9 µM.

As to `COC(=O)c1cccc(NC(=O)CSc2nnnn2C)c1`, the Potency is inactive: > 76.9 µM.

Take `COc1cc(Cn2c(N)c(C#N)c3nc4ccccc4nc32)cc(OC)c1`: the Potency was inactive: > 76.9 µM.

Regarding `Cc1noc(C)c1CSc1nc2ccccc2s1`, the Potency was inactive: > 76.9 µM.

On to `O=C(Cn1cccc1)Nc1ccc(OC(F)(F)F)cc1`, for which the Potency is active: 15.2 µM.

With `N#Cc1ccc(CSc2nnc(-c3ccncc3)n2CCc2ccccc2)cc1`, the Potency is inactive: > 76.9 µM.

For the compound `CC(C)NC(=O)c1ccc2c(c1)N(CC(=O)N1CCOCC1)C(=O)C(C)(C)O2`, the Potency was inactive: > 76.9 µM.

Turning to `CCOC(=O)C1=C(C)N=C2SCCC(=O)N2C1c1cc(Br)ccc1OC` (stereo unspecified), the Potency was inactive: > 76.9 µM.

Take `c1ccc2oc(SCc3cn4ccccc4n3)nc2c1`: the Potency is inactive: > 76.9 µM.

For the compound `COc1cc(OC)cc(-c2nnc(SCc3cccnc3)o2)c1`, the Potency is inactive: > 76.9 µM.

`CC(=O)c1cccc(NC(=O)c2cccc(S(=O)(=O)N(C)C)c2)c1`: the Potency is inactive: > 76.9 µM.

Turning to `CC1CCN(C(=O)Cn2c(=O)n(Cc3ccc4c(c3)OCO4)c(=O)c3ccccc32)CC1`, the Potency is inactive: > 76.9 µM.

In the case of `CCOC(=O)CCC(=O)N1CCOCCN(C(=O)CCC(=O)OCC)CCOCC1`, the Potency is inactive: > 76.9 µM.

Take `CC1CCCC(NC(=O)CSc2nnnn2C)C1C` (stereo unspecified): the Potency was inactive: > 76.9 µM.

As for `Cc1c(C#N)c2ncnc(N)c2n1-c1ccccc1`, the Potency was inactive: > 76.9 µM.

As to `COc1nc(N2CCOCC2)nc(-n2cccc2)n1`, the Potency was inactive: > 76.9 µM.
